# According to PMC9911399, “Two distinct binding modes provide the RNA-binding protein RbFox with extraordinary sequence specificity”:
# Numbering of substitutions follows the chain as printed; changes in the protein carry UniProt numbers. Some of the results follow.
# T1: RBFOX1 RRM RbFoxmut (Fox-RRM*) (Homo sapiens, UniProt Q9NWB1 109-208, R118D;E147R;N151S;E152T)
# T1 sequence: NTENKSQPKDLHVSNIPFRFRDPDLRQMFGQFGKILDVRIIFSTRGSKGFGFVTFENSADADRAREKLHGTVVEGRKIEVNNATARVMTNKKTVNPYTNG
# B1: AGUAUUA (DNA:RNA)
# RNA: GGGAGACCGGAAUUCAGAUUGUCCAGUAUUAUUAAAUCCCGUCGUAGCCACCA
# DNA 1: CAATCTGAATTCCGGTCTCCC
# DNA 2: TGGTGGCTACGACGGGATT
# B2: AGGUAAG (DNA:RNA)
# RNA: B1 RNA with U27G, A28U, U29A, U30A, A31G
# DNA 1: CAATCTGAATTCCGGTCTCCC
# DNA 2: TGGTGGCTACGACGGGATT
# B3: GGCUCUG (DNA:RNA)
# RNA: B1 RNA with A25G, U27C, A28U, U29C, A31G
# DNA 1: CAATCTGAATTCCGGTCTCCC
# DNA 2: TGGTGGCTACGACGGGATT
# B4: CAUACGA (DNA:RNA)
# RNA: B1 RNA with A25C, G26A, U29C, U30G
# DNA 1: CAATCTGAATTCCGGTCTCCC
# DNA 2: TGGTGGCTACGACGGGATT
# B5: UCACGAG (DNA:RNA)
# RNA: GGGAGACCGGAAUUCAGAUUGUCCUCACGAGUUAAAUCCCGUCGUAGCCACCA
# DNA 1: CAATCTGAATTCCGGTCTCCC
# DNA 2: TGGTGGCTACGACGGGATT
# B6: AUUAAUA (DNA:RNA)
# RNA: B1 RNA with G26U, U29A
# DNA 1: CAATCTGAATTCCGGTCTCCC
# DNA 2: TGGTGGCTACGACGGGATT
# B7: CUAUUUU (DNA:RNA)
# RNA: B1 RNA with A25C, G26U, U27A, A28U, A31U
# DNA 1: CAATCTGAATTCCGGTCTCCC
# DNA 2: TGGTGGCTACGACGGGATT
# B8: AACCAGC (DNA:RNA)
# RNA: B1 RNA with G26A, U27C, A28C, U29A, U30G, A31C
# DNA 1: CAATCTGAATTCCGGTCTCCC
# DNA 2: TGGTGGCTACGACGGGATT
# B9: AAUAGAG (DNA:RNA)
# RNA: B1 RNA with G26A, U29G, U30A, A31G
# DNA 1: CAATCTGAATTCCGGTCTCCC
# DNA 2: TGGTGGCTACGACGGGATT
# B10: UCGCUGC (DNA:RNA)
# RNA: B5 RNA with A27G, G29U, A30G, G31C
# DNA 1: CAATCTGAATTCCGGTCTCCC
# DNA 2: TGGTGGCTACGACGGGATT
# B11: CGCAUUC (DNA:RNA)
# RNA: B1 RNA with A25C, U27C, A31C
# DNA 1: CAATCTGAATTCCGGTCTCCC
# DNA 2: TGGTGGCTACGACGGGATT
# B12: CUAGAAU (DNA:RNA)
# RNA: B5 RNA with U25C, C26U, C28G, G29A, G31U
# DNA 1: CAATCTGAATTCCGGTCTCCC
# DNA 2: TGGTGGCTACGACGGGATT
# B13: GCUAACA (DNA:RNA)
# RNA: B1 RNA with A25G, G26C, U29A, U30C
# DNA 1: CAATCTGAATTCCGGTCTCCC
# DNA 2: TGGTGGCTACGACGGGATT
# B14: GCAUGAA (DNA:RNA)
# RNA: B5 RNA with U25G, C28U, G31A
# DNA 1: CAATCTGAATTCCGGTCTCCC
# DNA 2: TGGTGGCTACGACGGGATT
# B15: CGGCUUC (DNA:RNA)
# RNA: B1 RNA with A25C, U27G, A28C, A31C
# DNA 1: CAATCTGAATTCCGGTCTCCC
# DNA 2: TGGTGGCTACGACGGGATT
# B16: GCGGGAU (DNA:RNA)
# RNA: B5 RNA with U25G, A27G, C28G, G31U
# DNA 1: CAATCTGAATTCCGGTCTCCC
# DNA 2: TGGTGGCTACGACGGGATT
# B17: UCCUUUU (DNA:RNA)
# RNA: B1 RNA with A25U, G26C, U27C, A28U, A31U
# DNA 1: CAATCTGAATTCCGGTCTCCC
# DNA 2: TGGTGGCTACGACGGGATT
# B18: GGUCGAC (DNA:RNA)
# RNA: B5 RNA with U25G, C26G, A27U, G31C
# DNA 1: CAATCTGAATTCCGGTCTCCC
# DNA 2: TGGTGGCTACGACGGGATT
# B19: UAUUGCU (DNA:RNA)
# RNA: B5 RNA with C26A, A27U, C28U, A30C, G31U
# DNA 1: CAATCTGAATTCCGGTCTCCC
# DNA 2: TGGTGGCTACGACGGGATT
# B20: GAUUUUG (DNA:RNA)
# RNA: B1 RNA with A25G, G26A, A28U, A31G
# DNA 1: CAATCTGAATTCCGGTCTCCC
# DNA 2: TGGTGGCTACGACGGGATT
# Molecular target: T1, RBFOX1 RRM RbFoxmut (Fox-RRM*)
# Assay: EMSA; HiTS-Eq, 1 nM pool, 10 min; buffer printed only for the single-RNA assays: 10 mM Tris pH 7.5, 150 mM NaCl, 3.4 mM EDTA, 0.001% NP-40, 30 C
# Conditions: tags: His6 N-terminal (pET28a); label: 5' 32P
# Summary of the method: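 A pool of RNA with 7 randomized nucleotides, 5′-radiolabelled and with DNA-annealed flanks, was equilibrated at 1 nM for 10 min in 50 µL with purified RbFox RRM, wild type or mutant, across increasing protein concentrations. Free RNA was separated by 8% native PAGE, excised, reverse-transcribed, barcoded by PCR and sequenced. Relative association constants were obtained from read-count changes of each RNA species versus the control reaction and normalised to the cognate motif.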
row,Binder,binding signal
1,B1,0.123 KA relative to UGCAUGU
2,B2,0.125 KA relative to UGCAUGU
3,B3,0.152 KA relative to UGCAUGU
4,B4,0.0763 KA relative to UGCAUGU
5,B5,0.124 KA relative to UGCAUGU
6,B6,0.14 KA relative to UGCAUGU
7,B7,0.0929 KA relative to UGCAUGU
8,B8,0.0906 KA relative to UGCAUGU
9,B9,0.135 KA relative to UGCAUGU
10,B10,0.0945 KA relative to UGCAUGU
11,B11,0.0693 KA relative to UGCAUGU
12,B12,0.0833 KA relative to UGCAUGU
13,B13,0.0918 KA relative to UGCAUGU
14,B14,0.798 KA relative to UGCAUGU
15,B15,0.16 KA relative to UGCAUGU
16,B16,0.13 KA relative to UGCAUGU
17,B17,0.0728 KA relative to UGCAUGU
18,B18,0.0842 KA relative to UGCAUGU
19,B19,0.132 KA relative to UGCAUGU
20,B20,0.102 KA relative to UGCAUGU
